Experimental data as given in the supplement of paper PMC8512760.
The other results are listed elsewhere or left out. Repeats are few or missing, and single values can be far off.

Columns and labels:
Experiment in all cases: cell viability relative to vehicle (% of vehicle); basal-like triple-negative breast cancer lines; higher = less cytotoxic
Details in all cases: 10 µM; 72 h
[1] = system: HCC-1143
[2] = system: HCC-1187
[3] = system: MDA-468
[4] = system: SUM-149
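Also: stably firefly luciferase-GFP labeled cells in 96-well plates, viability read as luciferase photon flux after d-luciferin addition, treated wells normalized to vehicle wells, single-dose high-throughput screen.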

Row | Compound | cell viability [1] | cell viability [2] | cell viability [3] | cell viability [4]
1 | CCCC(=O)OC1(C(=O)COC(C)=O)CCC2C3CC(F)C4=CC(=O)C=CC4(C)C3(F)C(O)CC21C (centres undefined) [Difluprednate] | 101 | 108 | 176 | 199
2 | CCCNC(C)C(=O)Nc1c(C)csc1C(=O)OC.Cl (centres undefined) [Articaine HCl] | 70.3 | 85.4 | 109 | 107
3 | CC(C(=O)O)c1ccc(C(=O)c2cccs2)cc1 (centres undefined) [Suprofen] | 91.4 | 91.1 | 99.6 | 92.9
4 | CC(C)(C)Cn1c(N)nc2ccc(-c3[nH]c(C(C)(C)C)nc3-c3ccc(F)cc3)nc21.CS(=O)(=O)O.CS(=O)(=O)O | 69.4 | 79.6 | 92.9 | 50.9
5 | CNS(=O)(=O)Cc1ccc2[nH]cc(CCN(C)C)c2c1.O=C(O)CCC(=O)O [Sumatriptan Succinate] | 71.7 | 100 | 108 | 88.5
6 | Cc1nccn1CC1CCc2c(c3ccccc3n2C)C1=O.Cl (centres undefined) [Ondansetron HCl] | 81.6 | 68.4 | 83.3 | 123
7 | Cc1ncc([N+](=O)[O-])n1CC(O)CCl (centres undefined) [Ornidazole] | 76.3 | 97.4 | 101 | 95.3
8 | CS(=O)(=O)O.CS(=O)(=O)O.N=C(N)c1ccc2cc(OC(=O)c3ccc(N=C(N)N)cc3)ccc2c1 [Nafamostat Mesylate(FUT-175)] | 90.8 | 88.2 | 90.5 | 78
9 | CN(C)CCC(c1ccc(Cl)cc1)c1ccccn1.O=C(O)C=CC(=O)O (centres undefined) [Chlorpheniramine Maleate] | 82 | 95.7 | 98.6 | 97.2
10 | OCC(O)C(O)C(O)C(O)CO (centres undefined) [Sorbitol] | 78.8 | 74 | 96.5 | 106
11 | COc1ccc2cc(CCC(C)=O)ccc2c1 [Nabumetone] | 181 | 141 | 188 | 184
